According to PubChem BioAssay AID2675 (National Center for Advancing Translational Sciences (NCATS), 2010):
The whole screen tested about 280,000 compounds, of which about 100 (0.036%) were called active. Calls follow the shape of the dose curve; as a rule, active = well fitted inhibition curve with a large enough effect in the signal ratio, with a control signal flat (not every such curve was filed as active); inconclusive = small, poorly fitted or top-dose-only effect, or effect the other way, or a change in a side signal; inactive = no such curve, though single readings can be large or run the other way; the % refers to the signal ratio. Inconclusive results, whose numbers are uncertain, are shown. Where the call is inconclusive, the potency comes from a doubtful curve fit. A note “side channel” means that the fit belongs to a control or component signal, not to the main read-out.
Potency is read from the fitted curve at half-maximal effect; tags tell the direction and shape of the fitted curve or compound fluorescence and quenching.

The compounds below were run against Muscleblind-like protein 1 (Homo sapiens) (UniProt Q9NR56) (assay: qHTS Assay for Inhibitors of MBNL1-poly(CUG) RNA binding). Conditions: TR-FRET MBNL1-His/biotin-(CUG)12 binding, 665/545 ratio; series mostly up to 57.5 µM.
UniProt Q9NR56, sequence (Q9NR56 whole entry, looked up): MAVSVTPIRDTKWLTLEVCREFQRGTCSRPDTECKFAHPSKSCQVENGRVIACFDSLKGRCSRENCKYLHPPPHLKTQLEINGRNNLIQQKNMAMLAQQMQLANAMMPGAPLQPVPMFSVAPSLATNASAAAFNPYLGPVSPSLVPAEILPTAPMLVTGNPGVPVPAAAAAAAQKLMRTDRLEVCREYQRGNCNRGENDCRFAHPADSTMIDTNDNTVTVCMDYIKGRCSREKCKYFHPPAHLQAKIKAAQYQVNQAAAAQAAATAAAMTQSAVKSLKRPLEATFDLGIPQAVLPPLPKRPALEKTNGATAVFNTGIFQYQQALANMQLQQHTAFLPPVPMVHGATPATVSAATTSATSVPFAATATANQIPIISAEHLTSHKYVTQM
Method in brief: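 Compound titration spanned 92 nM–58 uM against the MBNL1-His/biotin-(CUG)12 complex. After 60 min at room temperature with 5 nM streptavidin-XL665 and 0.055 ng/ul terbium anti-His, ratiometric 665/545 nm emission (Ex 340 nm) normalized to controls.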
With `C=CCn1c(O)c(N=NC(=O)c2cccnc2)c2cc(Br)ccc21` the Potency was inconclusive: 0.631 µM [quencher, side channel, full curve]. With `CC(=NCCCN(C)C)C1=C(O)c2ccccc2C1=O` the Potency was inconclusive: 31.6 µM [quencher, side channel, single point]. In the case of `CCCOc1ccccc1NC(=O)c1ccc([N+](=O)[O-])cc1`, the Potency is reported as inconclusive: 7.94 µM [quencher, side channel, partial curve]. With `CC(C)CN(CC(C)C)C(=O)C12CCC(C)(C(=O)O1)C2(C)C` (stereo not given) the Potency was inconclusive: 1.41 µM [quencher, side channel, full curve]. For `CCN(CC)S(=O)(=O)c1cccc(C(=O)N/N=C/c2ccc(OC)c(O)c2)c1`, the Potency was inconclusive: 20 µM [quencher, side channel, single point]. In the case of `CCN1/C(=C/c2cc[n+](CCCS(=O)(=O)[O-])c3ccccc23)Sc2ccccc21`, the Potency is reported as inconclusive: 11.2 µM [quencher, side channel, partial curve]. In the case of `Cc1ccsc1/C=C1/SC(=O)N(CC(=O)N2CCOCC2)C1=O`, the Potency is reported as inconclusive: 14.1 µM [quencher, side channel, partial curve]. `[O-]/C(=C(\C(=S)Nc1ccc(SC(F)F)cc1)[n+]1ccccc1)c1ccc(Cl)cc1Cl` was tested, and the Potency was inconclusive: 39.8 µM [quencher, side channel, single point]. In the case of `Cc1ccc[n+](Cc2ccc([N+](=O)[O-])cc2)c1`, the Potency is reported as inconclusive: 31.6 µM [quencher, side channel, single point]. With `CCOc1c([N+](=O)[O-])cc2c(C)c(C(=O)N3CCN(C)CC3)oc2c1OCC` the Potency was inconclusive: 17.8 µM [quencher, side channel, partial curve]. In the case of `CN(O)C(=O)Nc1ccc([N+](=O)[O-])cc1`, the Potency is reported as inconclusive: 14.1 µM [quencher, side channel, partial curve]. For `FC(F)(F)c1cccc(N2CCN(C(=S)NC3CCCC3)CC2)c1`, the Potency was inconclusive: 0.141 µM [quencher, side channel, full curve, poor fit]. For `Clc1cccc(Cl)c1C[n+]1ccc2ccccc2c1`, the Potency was inconclusive: 11.2 µM [quencher, side channel, partial curve]. For `Cc1cc(S(=O)(=O)Nc2c(C)ccc3nsnc23)ccc1F`, the Potency was inconclusive: 25.1 µM [quencher, side channel, partial curve]. `O=[N+]([O-])c1cccc(CSc2cccc[n+]2[O-])c1` was tested, and the Potency was inconclusive: 25.1 µM [quencher, partial curve].
